The results in this text go back to the supplement of paper PMC11417369.

The other results are listed elsewhere or left out.

In the experiment the test system is PfHDP1 homeodomain (GST-tagged). Briefly: gcPBM binding intensity (ln(normalized median fluorescence intensity)); higher = stronger DNA binding. Put shortly:
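Each value is the highest Masliner-normalised natural-log median intensity across replicate spots of either orientation of a probe. The probes were primer-extended double-stranded 36-bp intergenic genomic sequences on an Agilent 4 × 180k array, alongside negative controls, exposed for 1 h to GST-tagged P. falciparum DNA-binding domains expressed in E. coli. Bound protein was picked up with Alexa488 anti-GST antibody and scanned at 488 nm.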
For “TATATATATATATATACATGCATTTCTCATGTACAT [TGCATGCA_site621]”, the “gcPBM binding intensity (ln)” value amounted to 9.46.

Regarding “TAGTTGTGAGTTACATGTACATGTATTTATTTTTTA [XGTACX_site7088]”, the “gcPBM binding intensity (ln)” value amounted to 6.82.

For the sequence “AATGTATAAAAGTTTTGTACATATTCTCACACATAT [XGTACX_site965]”, the “gcPBM binding intensity (ln)” value stood at 6.47.

Regarding “ATATACCATATGCATGGTACACATTTACAACAAAAA [XGTACX_site3142]”, the “gcPBM binding intensity (ln)” value is 6.37.

In the case of “ATAACGTAAACAATGTGGACACATACATAAATATAT [XGTACX_site707]”, the “gcPBM binding intensity (ln)” value was found to be 6.63.

As for “GATAACAATATGTGTACACATTTATATCTCCACATA [CACACA_site5442]”, the “gcPBM binding intensity (ln)” value came out at 7.24.

In the case of “TTTATTAAATAAAGCACACACAACAACTTTTCACAA [CACACA_site4132]”, the “gcPBM binding intensity (ln)” value was 6.94.

On to “TTACAAAACCGATGTTGTACATTCAATAGATAATGT [XGTACX_site3806]”, for which the “gcPBM binding intensity (ln)” value amounted to 6.15.

“AAAGAAAAAAATAATTGTACATTTATATTTAATTTA [XGTACX_site8003]”: the “gcPBM binding intensity (ln)” value was 6.2.

As to “TTTTTATTTATTAATACACACACACCCACCCACAAA [CACACA_site7965]”, the “gcPBM binding intensity (ln)” value was 8.62.

For the sequence “TTTTTTTTTAAATAATGTACTTTTCATTATTTAGAT [XGTACX_site1706]”, the “gcPBM binding intensity (ln)” value came to 6.13.

Take “AAAAAAAAATTAAAAACACACATATAAATAAATATA [CACACA_site6845]”: the “gcPBM binding intensity (ln)” value was determined as 6.46.

For “AACAAAATAGGGAACACACACATGTCAATATATAAA [CACACA_site2596]”, the “gcPBM binding intensity (ln)” value stood at 6.89.

Consider “TGAACACGCACAAATACACACAAAAAAAATAAATAA [CACACA_site6257]”, for which the “gcPBM binding intensity (ln)” value turned out to be 7.4.

Regarding “CCATTAAGACACATTGCACACGTGCACCCATAGAAA [CACACA_site4388]”, the “gcPBM binding intensity (ln)” value is 10.2.

As for “CACATACACATACAAACACACATTAGATATAAATAT [CACACA_site6854]”, the “gcPBM binding intensity (ln)” value amounted to 6.91.

As to “AAAAAAAATTAATAGGGTACATGAAAAGTGGAATAT [XGTACX_site618]”, the “gcPBM binding intensity (ln)” value was 7.23.

As for “ATAGAAGAAATATGCACACATACATTGAAATGTTTT [CACACA_site321]”, the “gcPBM binding intensity (ln)” value came out at 9.9.

For the sequence “ATATATATTTTTATTTGTACATAATTTTTTTTGTGA [XGTACX_site6378]”, the “gcPBM binding intensity (ln)” value came to 6.83.

With “ATATATGTAATAAATAGTACACACACACATATATAT [XGTACX_site2817]”, the “gcPBM binding intensity (ln)” value turned out to be 7.35.

Turning to “TTTTTTTTTTTTTGCACACACATATATAGATATATA [CACACA_site7784]”, the “gcPBM binding intensity (ln)” value turned out to be 10.1.

For “ATAAAATTGTTTAAATGTACATATGAACAGTCAGTA [XGTACX_site5140]”, the “gcPBM binding intensity (ln)” value stood at 6.67.

Turning to “ATAGTATAACAGCAATGTACACATATTTGTGTATAT [XGTACX_site7899]”, the “gcPBM binding intensity (ln)” value came out at 6.76.

“TATATATATAAACACACACACACATATATATATATT [CACACA_site8814]”: the “gcPBM binding intensity (ln)” value worked out at 7.33.

“ATATATATTTAAATGTGTACTCATTTATTTTATGTC [XGTACX_site4984]”: the “gcPBM binding intensity (ln)” value came out at 6.66.

Regarding “TTTTTTTTTTTTGTCACACATATATTTGTATTTATA [CACACA_site5234]”, the “gcPBM binding intensity (ln)” value came to 6.5.

As to “TGATATTTATAATAAATATTATAATAAAATCAAACA [XGTACX_negctrl_site219]”, the “gcPBM binding intensity (ln)” value worked out at 6.01.

As to “TGAAAAATGTTGATGTGTACTTATATAGTGTGTTAA [XGTACX_site2100]”, the “gcPBM binding intensity (ln)” value was 6.6.

Take “TAATTTTATATATGCACACAAAATATGTTCATATAA [CACACA_site4076]”: the “gcPBM binding intensity (ln)” value worked out at 10.4.

Turning to “TTTAACATAAATTAAACACACAATATAATACATTAA [CACACA_site1237]”, the “gcPBM binding intensity (ln)” value amounted to 6.42.

As to “AAATTACTTTCACAGTGTACTTGGAAAAAAAAAAGA [XGTACX_site1046]”, the “gcPBM binding intensity (ln)” value came out at 6.47.

As to “CATTTTATCAAAAGTGGTACAACCCTTTCAAAAAAT [XGTACX_site341]”, the “gcPBM binding intensity (ln)” value was found to be 5.93.

Consider “TTTTTTTTTTTTTTTTGTACGTAATATATGATTAAT [XGTACX_site6876]”, for which the “gcPBM binding intensity (ln)” value was found to be 6.32.

For the sequence “AGATATAATAAATATACACACATATATATATATATA [CACACA_site962]”, the “gcPBM binding intensity (ln)” value came out at 9.35.

On to “AAAAAAATCACATAAAATACTTTATTTTATATTATA [GTGCAC_negctrl_site372]”, for which the “gcPBM binding intensity (ln)” value amounted to 5.76.

Take “TATAAATATGTTCTTACACACACGAATATAAATATG [CACACA_site7537]”: the “gcPBM binding intensity (ln)” value is 6.58.

On to “TTACATAATATATGTACACACGCAAATACTTATAAT [CACACA_site7995]”, for which the “gcPBM binding intensity (ln)” value was 6.74.

On to “TATATTTCTTATTTCTTATTTTGTCATCACCTTTTT [CACACA_negctrl_site1115]”, for which the “gcPBM binding intensity (ln)” value is 6.46.

On to “TATTTATTTTTTTGCACACATATTTTACATTTTAAT [CACACA_site3181]”, for which the “gcPBM binding intensity (ln)” value came to 10.8.

“TATATATATATATATACACACATATATATATTTATA [CACACA_site627]”: the “gcPBM binding intensity (ln)” value amounted to 9.33.

“ATAACATTCATATTCACACAAAAATATACTACATAG [CACACA_site4529]”: the “gcPBM binding intensity (ln)” value was found to be 6.8.

Consider “TGTAGTCTGGAGAAACGTACATAGTATCTGGTAACC [XGTACX_site4939]”, for which the “gcPBM binding intensity (ln)” value was found to be 6.32.

In the case of “ATAAAAAAAGGACACACACACATATATATATATATA [CACACA_site5662]”, the “gcPBM binding intensity (ln)” value was 9.46.

As for “ATATAAAAAGTGTATCGTACATTTACTTATTTTATA [XGTACX_site6249]”, the “gcPBM binding intensity (ln)” value is 6.27.

With “ATTGAAAATTGTTGCACACATAATAATTAAATATAT [CACACA_site1857]”, the “gcPBM binding intensity (ln)” value was 9.56.

As to “CACACCCACAAAAACACACACAAAGGTGTTCTTATA [CACACA_site1293]”, the “gcPBM binding intensity (ln)” value worked out at 6.61.

In the case of “CTTTTTTTCCATTAAGCATGCACATTCATATTTACT [TGCATGCA_site170]”, the “gcPBM binding intensity (ln)” value amounted to 8.41.

Regarding “ATATATATATATATATGTACATATGTTAATCTGCAT [XGTACX_site1068]”, the “gcPBM binding intensity (ln)” value worked out at 9.27.

“TATATATATATAGGTTGTACATTTTGATGTTTACGT [XGTACX_site5503]”: the “gcPBM binding intensity (ln)” value came to 9.13.

For “GTTTATTTATTATAATGTACATTAGTCTGAGGAGTT [XGTACX_site4035]”, the “gcPBM binding intensity (ln)” value was determined as 7.19.

In the case of TTTTATTTATATATAGTGCATATTATTATAAAACAA, the “gcPBM binding intensity (ln)” value came out at 8.66.

Regarding “TACTTTTTTTTTTTTTTTTTTTTTTTTTCCCTTTTT [CACACA_negctrl_site761]”, the “gcPBM binding intensity (ln)” value amounted to 5.85.

On to “CCTTTTTTTTTTTTATGTACTAAAATAAAATTAGAA [XGTACX_site5956]”, for which the “gcPBM binding intensity (ln)” value was determined as 6.14.

Turning to “TTTTTTTTGATAAGTTGTACAATGATATATATCCCT [XGTACX_site3560]”, the “gcPBM binding intensity (ln)” value came out at 6.42.

In the case of “TATATTTTATATTGGTGTACAATTTTTTTTTTTTTT [XGTACX_site4291]”, the “gcPBM binding intensity (ln)” value came to 6.45.

Take “ATAGTTTAATTTATATGTACATATAATATTGATTTG [XGTACX_site7520]”: the “gcPBM binding intensity (ln)” value is 6.68.

Consider “AAATATTTATATGTTACACACTGTTTATAACTTTCT [CACACA_site6752]”, for which the “gcPBM binding intensity (ln)” value is 6.34.
